# Out of some 310,000 compounds screened, about 14,000 (4.5%) showed an effect of 50% or more. The effect is printed as a negative number. This is one part of the list.
# Target: human ether-à-go-go-related gene (hERG) potassium channel (human, UniProt Q12809)
# Experiment: primary screen, population patch clamp on CHO cells stably expressing hERG
# 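Further: peak tail current of the secondary pulse compared with the same well before compound.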
# Sequence of human ether-à-go-go-related gene (hERG) potassium channel (Q12809 whole entry, looked up): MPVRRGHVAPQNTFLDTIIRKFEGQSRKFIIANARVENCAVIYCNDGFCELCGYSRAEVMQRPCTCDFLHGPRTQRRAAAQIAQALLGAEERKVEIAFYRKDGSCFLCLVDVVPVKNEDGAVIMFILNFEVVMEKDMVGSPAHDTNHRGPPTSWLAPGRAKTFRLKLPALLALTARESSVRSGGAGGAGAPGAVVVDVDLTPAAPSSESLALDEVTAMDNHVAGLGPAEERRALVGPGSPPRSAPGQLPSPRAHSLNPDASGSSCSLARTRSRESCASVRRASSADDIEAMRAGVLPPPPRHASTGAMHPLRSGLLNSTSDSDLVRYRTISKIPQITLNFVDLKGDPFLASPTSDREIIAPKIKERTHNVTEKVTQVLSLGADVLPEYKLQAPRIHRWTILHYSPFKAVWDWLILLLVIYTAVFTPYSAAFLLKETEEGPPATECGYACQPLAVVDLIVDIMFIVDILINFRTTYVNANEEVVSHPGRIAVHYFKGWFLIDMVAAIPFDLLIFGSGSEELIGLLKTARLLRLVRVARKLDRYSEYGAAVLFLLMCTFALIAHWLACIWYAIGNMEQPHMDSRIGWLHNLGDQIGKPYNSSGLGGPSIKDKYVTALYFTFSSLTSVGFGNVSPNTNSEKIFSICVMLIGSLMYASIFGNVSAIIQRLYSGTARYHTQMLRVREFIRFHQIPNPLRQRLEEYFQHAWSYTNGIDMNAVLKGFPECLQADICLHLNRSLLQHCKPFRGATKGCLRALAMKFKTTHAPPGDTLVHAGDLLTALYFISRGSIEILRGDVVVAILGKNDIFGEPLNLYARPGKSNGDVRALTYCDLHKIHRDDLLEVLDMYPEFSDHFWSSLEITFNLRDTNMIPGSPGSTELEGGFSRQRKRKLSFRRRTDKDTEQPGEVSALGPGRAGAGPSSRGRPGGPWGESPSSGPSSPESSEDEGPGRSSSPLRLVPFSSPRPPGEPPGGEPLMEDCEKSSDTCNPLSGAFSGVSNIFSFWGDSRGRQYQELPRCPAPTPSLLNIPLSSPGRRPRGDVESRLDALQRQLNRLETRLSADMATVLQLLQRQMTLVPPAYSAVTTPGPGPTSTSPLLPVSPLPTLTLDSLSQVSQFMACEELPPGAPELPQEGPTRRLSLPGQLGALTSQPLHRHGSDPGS
row,Compound,"hERG current change (%, negative = inhibition) at 10uM [%]"
1,COc1ccc(-c2cc(C(F)F)n3ncc(C(=O)N4CCCc5ccccc54)c3n2)cc1,11.2
2,O=C(Nc1ccc(N2CCOCC2)cc1)c1ccc(-c2ccccc2[N+](=O)[O-])o1,15.9
3,Nc1c(C(=O)O)sc2nc(-c3ccc(F)cc3)cc(-c3ccccc3)c12,8.62
4,O=C(CNC(=S)NC(=O)c1cccs1)c1ccccc1,0.111
5,O=C1c2cccc3cccc(c23)C(=O)N1CCCSc1ncn[nH]1,-7.77
6,O=S(=O)(NCCCO)c1ccc2c(c1)Cc1cc(S(=O)(=O)NCCCO)ccc1-2,4.49
7,Cc1ccc(S(=O)(=O)Cn2nnnc2C(C(C)C)N2CCN(Cc3ccco3)CC2)cc1 (centres unmarked),17.9
8,CCOC(=O)c1sc(SC)c2c1CCC/C2=N/OC,5.08
9,COc1ccc(-c2nnc(SCC(=O)N3CCCC3)o2)cc1,7.58
10,COc1cc(C2NC(=O)NC(C)=C2C(=O)NCc2ccccc2)c(Cl)cc1O (centres unmarked),1.65
11,CCCCCCCCO,17.4
12,O=C(CCNC(=O)c1ccc(Cl)cc1)Nc1cccc(S(=O)(=O)N2CCCCCC2)c1,-57.3
13,Fc1ccc(N2CCN(Cc3cnc(N4CCOCC4)s3)CC2)cc1,-20
14,Cc1ccc(S(=O)(=O)N2CCOC2CNC(=O)C(=O)NCCCN2CCOCC2)cc1 (centres unmarked),-0.206
15,O=S(=O)(Nc1nc2ccccc2nc1NCc1ccco1)c1ccc(Cl)cc1,5.49
16,c1cc(-c2nn[nH]n2)ccc1CN1CCCCC1,7.76
17,CC1CCCN(C(=O)C2CCN(S(=O)(=O)c3cccc4cccnc34)CC2)C1 (centres unmarked),-7.15
18,N#Cc1cc([N+](=O)[O-])ccc1Oc1cccc(/C=N/NC(=O)c2cccc(Cl)c2)c1,-20.3
19,CCOC(=O)CN1c2ccccc2NC(=O)CC1C (centres unmarked),-2.79
20,Cc1ccc(N(CC(=O)NC2CCCC2)C(=O)c2ccc(C)s2)cc1,-7
21,O=c1c2ccccc2[nH]c(=S)n1Cc1ccccc1,12.9
22,Cc1ccc(NC(=S)N(Cc2ccco2)C(C)c2cccs2)c(Cl)c1 (centres unmarked),4.28

row,Compound,"hERG current change (%, negative = inhibition) at 10uM [%]"
1,CN(C)c1ccc(C(c2nnnn2C(C)(C)C)N2CCN(C(=O)c3ccco3)CC2)cc1 (centres unmarked),-13.8
2,Cc1ccc(OCC(=O)Nc2ccc3c(c2)C(=O)NC3=O)c(C)c1,9.45
3,CCn1c(SC)nnc1-c1nn(-c2ccccc2)ccc1=O,11.3
4,COc1ccc2nc(NC(=O)CSc3nnc(-c4ccoc4C)n3C)sc2c1,-8.85
5,Cc1ccc2c(C)c(C(=O)Nc3c(C)n(C)n(-c4ccccc4)c3=O)oc2c1,-2.96
6,CCOC(=O)C1CCN(C(=O)CCc2ccc(S(=O)(=O)NC(C)C)cc2)CC1,-0.614
7,O=C(Nc1nc2ccccc2s1)c1ccccc1,48
8,CC(C)=CCSc1nnc([C@@H](NC(=O)OC(C)(C)C)C(C)C)o1,-17.3
9,COc1ccc(S(=O)(=O)N2CCC(C(=O)N[C@H](C(=O)NCc3ccncc3)C(C)C)CC2)cc1,14.5
10,O=C(CN1CCOCC1)Nc1ccc2c(c1)OC(F)(F)O2,1.72
11,CCCCn1c(N)c(N(CC)C(=O)CCNC(=O)NC23CC4CC(CC(C4)C2)C3)c(=O)[nH]c1=O,8.45
12,CC(=O)C(=Cc1cc(C)n(-c2ccccc2)c1C)C(C)=O,11.4
13,CC(C)(O)CC[C@@H](O)[C@](C)(O)[C@H]1CC[C@@]2(O)C3=CC(=O)[C@@H]4C[C@@H](O)[C@@H](O)C[C@]4(C)[C@H]3CC[C@]12C,20.4
14,CC1CCCC(NC(=O)COC(=O)c2cc(S(=O)(=O)N3CCOCC3)ccc2F)C1C (centres unmarked),9.77
15,O=S1(=O)C=C(SCCN2CCCC2)c2ccccc21,-16.4
16,O=c1cc(N2CCCCC2)c(-c2ccccc2)nn1Cc1cccc(F)c1,-37.4
17,O=C(c1ccc(F)cc1)c1cnc(Nc2ccccc2)s1,33
18,Cc1c(C(=O)O)sc(S(=O)(=O)N2CCN(C(=O)Cc3ccc(F)cc3)CC2)c1C(=O)O,27.5
19,COc1ccc(N2CC(NS(=O)(=O)c3cccnc3)CC2=O)cc1 (centres unmarked),20.1
20,O=C(Nc1cc2c3c(c1)CC(=O)N3CCC2)c1ccc(Cl)cc1,-42.2
21,CC(=O)NS(=O)(=O)c1ccc(NC(=O)c2ccc(NC(=O)c3cccs3)cc2)cc1,2.48
22,CCCC(=O)NC(Oc1ccccc1Cl)C(Cl)(Cl)Cl (centres unmarked),-5.26

row,Compound,"hERG current change (%, negative = inhibition) at 10uM [%]"
1,Cc1ccc(NS(=O)(=O)c2ccc(Cl)s2)nc1,18.8
2,O=C(/C=C/c1ccc([N+](=O)[O-])s1)N1CCN(c2ccccc2)CC1,-37
3,Cc1ccc(N=C2NC(=O)C(CO)(CO)S2)cc1,16.1
4,Cc1ccc(NC(=O)[C@@H](C)NC(=O)[C@@H]2Cc3ccccc3CN2)cc1,-14.9
5,CCc1ccccc1NC(=O)NCc1ccc2c(c1)OCO2,22.9
6,CCOC(=O)C(=CNc1ccc(C(O)(C(=O)OCC)C(F)(F)F)cc1C)C(=O)OCC (centres unmarked),-10.3
7,CC(C)(C)C(=O)Nc1ccc(N2CCN(S(C)(=O)=O)CC2)cc1,13.2
8,CS(=O)(=O)Nc1ccc(C(=O)CC(=O)Nc2ccc([N+](=O)[O-])cc2)cc1,-60.7
9,Cc1cc(C)nc(NS(=O)(=O)c2ccc(NC(=O)Nc3ccccc3)cc2)n1,29.4
10,O=C(O)CCc1ccc(-c2ccc(Br)cc2)n1Cc1ccco1,9.31
11,CC(=O)Cc1nsc(NC(=O)c2cccc(F)c2)n1,12.5
12,COc1ccc2c(CCNC(=O)c3ccc([N+](=O)[O-])cc3)c[nH]c2c1,20.9
13,COc1ccc(C(CNC(=O)c2ccc(-c3ccccc3Cl)o2)N2CCOCC2)cc1 (centres unmarked),-23.7
14,CC(C)Cc1nc2sc3c(SCC(N)=O)ncnc3c2c2c1CCC2,19.7
15,COc1cc(C(=O)N2CCN(c3ccc(C)cc3C)CC2)cc(OC)c1OC,-19.7
16,N=C1C(c2nc3ccccc3s2)=C(O)CN1c1ccccc1,0.995
17,O=C(Nc1ccc(F)cc1F)Nc1ccc(F)cc1F,11.2
18,O=C(NP(=O)(N1CCCC1)N1CCCC1)C1=C(N2CCOCC2)/C(=C/c2cccc([N+](=O)[O-])c2)CC1,-26.1
19,COc1cccc(-c2cc(=O)c3cc(NC(C)=O)ccc3[nH]2)c1,1.04
20,COCCNc1nc(-c2cc(-c3ccccc3)on2)cc(C(C)C)n1,-8.35
21,Cc1ccc(S(=O)(=O)N/N=C/c2ccc(C(=O)O)cc2)cc1,15.2
22,COc1ccc(C(=O)Nc2c(N)nc(SCC(=O)Nc3ccc(NC(C)=O)cc3)[nH]c2=O)cc1OC,29.2

row,Compound,"hERG current change (%, negative = inhibition) at 10uM [%]"
1,Oc1ccccc1C1=NCCNC(C(F)(F)C(F)F)=C1,-36.1
2,O=C(c1cncc(Br)c1)N1CCN(S(=O)(=O)c2ccccc2C(F)(F)F)CC1,-17.6
3,CCOC(=O)N1CCN(C(=O)c2ccc3c(c2)NC(=O)C(N2CCOCC2)S3)CC1 (centres unmarked),-4.6
4,COC(=O)c1ccc(Nc2nc(C)cc(C)n2)cc1,10.9
5,COc1ccc(-c2oc(=O)c3cc(OC)c(OC)cc3c2/C=C/c2cccc([N+](=O)[O-])c2)cc1,2.12
6,CC(=O)Nc1c(O)nc(SCC(=O)Nc2ccc(C(C)=O)cc2)[nH]c1=O,6.27
7,CC1CCCCC1NC(=O)c1cc2c(s1)CS(=O)(=O)C2 (centres unmarked),-6.74
8,CCCc1noc(-c2cccc([N+](=O)[O-])c2)n1,11.5
9,Cl.N=c1n(CCN2CCCCC2)c2ccccc2n1CC(O)COc1ccccc1 (centres unmarked),-68.2
10,CCCN(C(=O)C1=COCCO1)c1c(N)n(Cc2ccccc2)c(=O)[nH]c1=O,16.2
11,CCOC(=O)C1CCN(C(=O)c2ccccc2CCc2ccccc2)CC1,-8.95
12,CCn1cc(C(=O)NCC(OC)OC)c(=O)c2cc(S(=O)(=O)N3CCCC3)ccc21,10.3
13,COCCNC(=O)Cn1cnc2ccc(S(=O)(=O)N3CCC(C)CC3)cc2c1=O,-15.1
14,CNC(=S)NNC(=O)c1cccn(Cc2ccccc2)c1=O,19
15,O=C(CNC(=O)C(c1ccccc1)c1ccccc1)OCc1ccccc1,18.1
16,COc1cc(/C=C2\C(=O)ON=C2c2ccccc2)cc(Br)c1O,-3.19
17,C#CCNC(=O)C1=C[C@H](c2coc3ccccc3c2=O)C[C@H](OCCCCO)O1,-45
18,CC(CNC(=O)CCc1nnc(CCC2CCCCC2)o1)c1ccccc1 (centres unmarked),-10.3
19,CC(C)C(=O)Nc1ccc(NC(=O)c2ccccn2)cn1,7.61
20,O=c1c2ccccc2cnn1Cc1cccc(Br)c1,3.05
